Data reported in patent publication EP4197559A1, “IMMUNOMODULATORY PROTEIN-SIRNA COMPLEX HAVING ANTICANCER ACTIVITY” (Korea Institute of Science and Technology, priority 2020, dated 2022).

Target: T1, CD47 receptors on HT-29 cells (human-derived colon cancer cells) (human, UniProt Q08722 19-323)
T1 construct: whole, on cells
Experiment: confocal microscopy of HT-29 cells; uptake reduced by the CD47 antibody

B1: fusion protein-siRNA complex prepared in Example 2 (SIRPα-CD47 siRNA) (other)
chain: EEELQIIQPDKSVLVAAGETATLRCTITSLFPVGPIQWFRGAGPGRVLIYNQRQGPFPRVTTVSDTTKRNNMDFSIRIGNITPADAGTYYCIKFRKGSPDDVEFKSGAGTELSVRAKPVDGGFLGGGGCG
modifications: CD47 siRNA (sense strand SEQ ID NO 17, antisense strand SEQ ID NO 18) bound 1:1 through maleimide at the 3'-end of the sense strand to the thiol group of the cysteine at the C-terminal end of the fusion protein
notes: Expressed in E. coli BL21 (DE3) from pet28a and purified by its His-tag; The protein was detected in cells with an FITC-labeled His-tag antibody; also called SIPRα-CD47 siRNA; immunoregulatory protein-siRNA complex
Q: Does B1 bind?
A: binds
